Measurements published in PubChem BioAssay AID1347165 (National Center for Advancing Translational Sciences (NCATS), 2019).
The whole screen tested about 220,000 compounds, of which about 5,700 (2.6%) were called active. This list was built around the results that the source calls inconclusive (neither active nor inactive); the mix of calls is not that of the screen. Calls come from the whole dose curve; as a rule, active = well fitted inhibition curve with a large enough effect; inconclusive = small, poorly fitted or top-dose-only effect; inactive = no such curve, though single readings can be large or run the other way. Potencies beside an inconclusive call are fits to weak or partial responses and may not hold up.

biological target: Lysine-specific demethylase 5B (Homo sapiens) (UniProt Q9UGL1); assay: Primary screen for KDM5B Histone Demethylases FDH-coupled qHTS; settings: FDH-coupled NADH fluorescence (FDH is formaldehyde dehydrogenase); activity change, negative = inhibition: at 57.7 µM (top of the series) unless noted; note: nearly all actives have a fitted effect of over 70% in size; for activity change, negative = inhibition: 0% is about no effect
Summary of the method: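 qHTS format, multiple compound concentrations. Buffer 50 mM HEPES pH 7.5/0.01% Tween-20; 200 nM KDM5BΔAP final; 10 min compound preincubation; substrate-mix levels 12.5 µM peptide, 25 µM α-KG, 0.25 mM NAD⁺; 30 min RT; ΔRFU.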
Potency is the fitted concentration of half-maximal effect; tags give direction and shape of the fitted curve.

Chain of UniProt Q9UGL1 (Q9UGL1 whole entry, looked up): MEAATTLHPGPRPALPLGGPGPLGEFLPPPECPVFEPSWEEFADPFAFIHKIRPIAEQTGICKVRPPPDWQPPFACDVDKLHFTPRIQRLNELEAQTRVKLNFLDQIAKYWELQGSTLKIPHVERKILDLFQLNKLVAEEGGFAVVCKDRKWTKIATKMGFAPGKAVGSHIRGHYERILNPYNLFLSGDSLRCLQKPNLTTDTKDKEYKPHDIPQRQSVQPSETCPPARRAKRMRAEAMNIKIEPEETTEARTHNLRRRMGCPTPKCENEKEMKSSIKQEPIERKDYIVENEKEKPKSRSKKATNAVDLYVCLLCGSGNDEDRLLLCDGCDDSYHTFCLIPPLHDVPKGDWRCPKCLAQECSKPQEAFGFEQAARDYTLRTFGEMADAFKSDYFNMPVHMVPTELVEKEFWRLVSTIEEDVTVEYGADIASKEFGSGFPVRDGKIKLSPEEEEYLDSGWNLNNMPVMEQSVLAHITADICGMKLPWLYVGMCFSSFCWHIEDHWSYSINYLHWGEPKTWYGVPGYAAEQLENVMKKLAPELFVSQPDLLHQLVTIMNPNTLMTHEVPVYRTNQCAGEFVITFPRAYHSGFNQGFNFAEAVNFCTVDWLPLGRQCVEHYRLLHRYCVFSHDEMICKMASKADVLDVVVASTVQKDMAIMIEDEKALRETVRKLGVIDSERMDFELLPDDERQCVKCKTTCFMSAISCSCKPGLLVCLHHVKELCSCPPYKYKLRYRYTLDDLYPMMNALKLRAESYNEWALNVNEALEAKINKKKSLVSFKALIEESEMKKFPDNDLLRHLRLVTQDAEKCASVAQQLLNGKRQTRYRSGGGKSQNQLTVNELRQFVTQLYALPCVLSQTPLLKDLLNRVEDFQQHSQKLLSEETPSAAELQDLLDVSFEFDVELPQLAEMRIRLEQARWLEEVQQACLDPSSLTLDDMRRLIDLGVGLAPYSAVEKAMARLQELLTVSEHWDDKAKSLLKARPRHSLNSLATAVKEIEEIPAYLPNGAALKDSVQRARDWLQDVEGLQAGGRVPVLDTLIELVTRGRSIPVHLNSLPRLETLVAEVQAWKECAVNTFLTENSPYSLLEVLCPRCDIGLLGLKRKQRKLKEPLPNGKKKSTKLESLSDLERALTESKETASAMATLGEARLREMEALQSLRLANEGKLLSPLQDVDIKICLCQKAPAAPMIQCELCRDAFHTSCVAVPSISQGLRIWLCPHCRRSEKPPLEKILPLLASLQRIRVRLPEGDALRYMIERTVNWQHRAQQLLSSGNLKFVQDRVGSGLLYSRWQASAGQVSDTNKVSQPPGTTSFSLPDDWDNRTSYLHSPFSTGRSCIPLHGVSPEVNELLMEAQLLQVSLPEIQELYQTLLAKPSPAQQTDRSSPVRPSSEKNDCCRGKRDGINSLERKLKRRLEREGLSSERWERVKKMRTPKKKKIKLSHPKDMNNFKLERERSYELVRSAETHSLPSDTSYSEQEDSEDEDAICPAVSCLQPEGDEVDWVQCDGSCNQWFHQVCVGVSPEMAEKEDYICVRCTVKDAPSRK

SMILES	Potency	activity change, negative = inhibition
Cc1ccc(C2C=C(c3ccc(Cl)cc3)Nc3nc(NC(=O)c4ccco4)nn32)cc1 (stereo not drawn)	inconclusive: 14.1 µM [inhibitor, partial curve, poor fit]	
COc1ccc(NC(=O)CSC2=Nc3ccccc3C3=NC(CC(=O)NCc4ccc5c(c4)OCO5)C(=O)N23)cc1 (stereo not drawn)	inconclusive: 14.1 µM [inhibitor, partial curve, poor fit]	
CCOc1ccc(C(c2c(O)cc(C)n(Cc3ccco3)c2=O)N2CCN(c3ccccc3)CC2)cc1 (stereo not drawn)	inconclusive: 35.5 µM [inhibitor, single point]	
CCN(CC)Cc1cnc2c(C(=O)NC3CCC3)cnn2c1	inconclusive: 1.78 µM [inhibitor, full curve, poor fit]	
O=C(Oc1ccccc1)c1cnc2ccccc2n1	inconclusive: 35.5 µM [inhibitor, single point]	
CN1CCC(Oc2nccnc2N2CCc3ccccc32)C1 (stereo not drawn)	inactive	
Cc1cccc(CC(=O)N2CCC(Nc3cccn4ncnc34)CC2)c1	inconclusive: 20 µM [inhibitor, partial curve, poor fit]	
COc1ccc(-c2noc(-c3nc(C)no3)n2)c(OC)c1	inconclusive: 31.6 µM [inhibitor, single point]	
CCOC(=O)c1ccn(-c2nc(-c3cccc(OC)c3)cc(C(F)(F)F)n2)n1	inconclusive: 39.8 µM [inhibitor, partial curve, poor fit]	
COc1cc(C(=O)Nc2nonc2-c2ccc(Cl)cc2)cc(OC)c1OC		inconclusive: -37.3% [inhibitor]
CCCCN(Cc1ccccc1)Cc1nc(-c2ccc(C(=O)OC)cc2)no1	inconclusive: 28.2 µM [inhibitor, partial curve, poor fit]	
Cc1ccc(NC(=O)CN2C(=O)NC3(CCCCC3)C2=O)cc1C	inconclusive: 39.8 µM [inhibitor, single point]	
COc1cccc(CN2C[C@@H](F)[C@@H](OCc3nc4ccccc4o3)C2)n1	inactive	
CC(C)c1ccc(NC(=O)CCn2c(=O)c3cccn3c3ccccc32)cc1	inconclusive: 25.1 µM [inhibitor, single point]	
COC1CCCN(C(=O)c2cc(-c3ccc(F)cc3)cc3ncn(C)c23)C1 (stereo not drawn)	inconclusive: 35.5 µM [inhibitor, single point]	
O=C(CS)Nc1ccc2ccccc2c1	inactive	
CN(C)C(=O)C1CCCN(c2nc3ncccc3o2)C1 (stereo not drawn)	active: 25.1 µM	
OCc1cccc(-c2cc3c(cn2)CN(CCc2ccccc2)CCN3)c1	inconclusive: 39.8 µM [inhibitor, partial curve, poor fit]	
O=C(CCc1ccccc1)N1CCNc2cnc(Nc3ccc(-n4ccnc4)cc3)nc2C1	inconclusive: 14.1 µM [inhibitor, partial curve, poor fit]	
CCOc1ccc(CCNC(=O)c2ccc3c(c2)sc2nc(-c4ccc(F)cc4)cn23)cc1OCC	inconclusive: 2.24 µM [inhibitor, partial curve, poor fit]	
Cc1cc2ccccc2n1CC(=O)N1CCC(C(N)=O)CC1	inactive	

SMILES	Potency	activity change, negative = inhibition
COCCNc1nc(SC)nc2sc3c(c12)CCN(C)C3	inconclusive: 12.6 µM [inhibitor, partial curve, poor fit]	
COc1ccc(-c2nc(-c3ccccc3)c(-c3ccc(F)cc3)[nH]2)c(OC)c1C	inconclusive: 25.1 µM [inhibitor, partial curve, poor fit]	
COCC(=O)N[C@@H]1CN(Cc2ccncc2)C[C@H]1CO	inconclusive: 39.8 µM [inhibitor, partial curve, poor fit]	
CCn1cc(CN2CCN(Cc3ccccc3)CC2)ccc1=O	inconclusive: 20 µM [inhibitor, partial curve]	
CC(C)(C)c1ccc2c(c1)C(C[C@H]1CN(S(C)(=O)=O)CC[C@H]1CC(=O)O)=NCC2	inconclusive: 31.6 µM [inhibitor, partial curve, poor fit]	
COc1ccc(Cl)cc1NS(=O)(=O)c1cc(-c2cc(C(F)(F)F)on2)ccc1OC	inactive	
Cc1cc(CNC(=O)c2cc(C(C)C)nn2C)c2[nH]c(C)c(C)c2c1	inconclusive: 20 µM [inhibitor, partial curve]	
Cc1ccc(C(=O)Nc2ccc(S(=O)(=O)N3CCOCC3)cc2)cc1Br	inconclusive: 25.1 µM [inhibitor, single point]	
CCc1cccc2c(C(CC(=O)NCCc3ccccc3)c3ccc(OC)c(OC)c3)c[nH]c12 (stereo not drawn)	inconclusive: 35.5 µM [inhibitor, single point]	
C#CCNC(=O)CC[C@@H]1CNC(=O)[C@@H]2C[C@H](NC(=O)c3ccco3)CN12	inconclusive: 35.5 µM [inhibitor, partial curve, poor fit]	
CCC(C)NC(=O)Cn1c(-c2cccs2)cc2cc(Cl)ccc21 (stereo not drawn)	inconclusive: 6.31 µM [inhibitor, partial curve, poor fit]	
COc1cc(C(=O)NC[C@@H]2CC[C@H]3C[C@@H]2C3(C)C)nc2ccccc12	inactive	
COc1nccnc1NC1CCN(C(=O)NCc2ccccc2)CC1	active: 28.2 µM	
O=C1NCc2ccccc2CC12CCCCN2Cc1ccnc2ccccc12 (stereo not drawn)	inconclusive: 50.1 µM [inhibitor, partial curve, poor fit]	
Cc1oc2c(c1C(=O)N1CCCC1)CN(Cc1cccc(F)c1)CC2	inconclusive: 25.1 µM [inhibitor, single point]	
CC#CCn1cc2c3c(cccc31)[C@H](CC(C)C)N[C@H](C(=O)NCc1ccccc1)C2	inconclusive: 35.5 µM [inhibitor, partial curve]	
O=[S+]([O-])(Nc1cccnc1)c1ccc2c(c1)OCCN(Cc1cscn1)C2	active: 35.5 µM	
CCN(CC)S(=O)(=O)c1ccc(C(=O)N(c2ccccc2)c2nc(C)cs2)cc1	inactive	
Cc1ccc(-c2nc3c4ccccc4n(CC(=O)N4CCN(c5ccc(F)cc5)CC4)c(=O)n3n2)cc1		inconclusive: -33.9% [inhibitor]
COc1cc(/C=C(/C#N)C(=O)c2ccccc2)cc(Br)c1O	inconclusive: 28.2 µM [inhibitor, single point]	
C#CCNC(=O)c1cc(-c2ccc(Cl)cc2Cl)c2cccn2n1	inactive	

SMILES	Potency	activity change, negative = inhibition
CN1CCN(S(=O)(=O)c2ccc(Sc3ccc4ccccc4c3)nc2)CC1	inconclusive: 39.8 µM [inhibitor, single point]	
CC(=O)N1CCN(c2nc(-c3ccco3)c3c(c2C#N)CC(C)(C)SC3)CC1	inconclusive: 20 µM [inhibitor, partial curve, poor fit]	
Cc1noc(C)c1-c1cnc(Nc2ccc(F)c(Cl)c2)c2c1CCO2	active: 17.8 µM	
Cc1ccccc1CNC(=O)c1ccc2[nH]c(C)c(C)c2c1	inconclusive: 1.78 µM [inhibitor, partial curve, poor fit]	
CSc1ccc(NC(=O)c2ccc3c(c2)N(C)C2CCCCCN2C3=O)cc1 (stereo not drawn)	inconclusive: 35.5 µM [inhibitor, partial curve, poor fit]	
COCCc1noc([C@@H]2CN(Cc3ccc(C)o3)C[C@H]2CO)n1	inconclusive: 39.8 µM [inhibitor, partial curve, poor fit]	
COCCc1noc(C2Cc3ccccc3N2C(=O)Nc2ccc(C)c(C)c2)n1 (stereo not drawn)	inconclusive: 25.1 µM [inhibitor, partial curve, poor fit]	
CC1=NNC(=O)C1C(c1ccc(Cl)cc1)C(C#N)C#N (stereo not drawn)	inconclusive: 31.6 µM [inhibitor, partial curve, poor fit]	
Cn1c(COc2cccc(C(F)(F)F)c2)nnc1SCc1c(F)cccc1Cl	inactive	
S=c1[nH]c2ccccc2n2c(=S)[nH]nc12	inconclusive: 11.2 µM [inhibitor, partial curve, poor fit]	
O=C(COC(=O)C1CC(=O)N(c2nc(-c3ccc(Cl)cc3)cs2)C1)c1ccc(Cl)cc1 (stereo not drawn)	inactive	
CC1CCCCC1NC1c2ccccc2-c2ccccc21 (stereo not drawn)	inactive	
CN(C)c1ccc(CN2CCC3(C2)C(=O)N(c2ccccc2)c2ccccc23)cc1 (stereo not drawn)	inconclusive: 50.1 µM [inhibitor, partial curve, poor fit]	
CC(C)c1nc2oc3c(NCCO)ncnc3c2c2c1COC(C)(C)C2	inconclusive: 28.2 µM [inhibitor, partial curve, poor fit]	
CNc1oc(-c2ccc(Cl)cc2)nc1S(=O)(=O)c1ccc2c(c1)OCCO2	inconclusive: 28.2 µM [inhibitor, partial curve, poor fit]	
Cn1ncc2c(N)nc(NC3CC(c4cc(=O)[nH]c(C5CC5)n4)C3)nc21 (stereo not drawn)	active: 20 µM	
CC1Cc2cc(S(=O)(=O)NCc3ccccc3)ccc2N1C(=O)C1CCC1 (stereo not drawn)		inconclusive: -56.6% [inhibitor] [at 11.5 µM]
O=C1CN(C(=O)CCC(=O)N2CCc3nc4cc(-c5ccccc5)[nH]n4c(=O)c3C2)c2ccccc2N1	inconclusive: 31.6 µM [inhibitor, partial curve, poor fit]	
CCC(Sc1nc(-c2ccccc2)c(-c2ccccc2)[nH]1)C(=O)O (stereo not drawn)	inconclusive: 28.2 µM [inhibitor, partial curve, poor fit]	
CCOC(=O)c1cc(OC(=O)c2cc(OC)cc(OC)c2)n(-c2ccccc2)n1	inactive	
C/C=C(\C)CN1C[C@@H](NC(=O)Cn2ccnc2C)C[C@H]1C(=O)NCC	inconclusive: 15.8 µM [inhibitor, single point]	
